PubChem BioAssay AID1347165 (National Center for Advancing Translational Sciences (NCATS), 2019)
Hit rate of the full screen: of about 220,000 compounds, about 5,700 (2.6%) were called active. Inconclusive results, whose numbers are uncertain, are shown with a selection of clear calls. The call rests on the fitted dose curve; in most records, active means well fitted inhibition curve with a large enough effect; inconclusive means small, poorly fitted or top-dose-only effect; inactive means no such curve, though single readings can be large or run the other way. Potencies of inconclusive entries are doubtful fits and often do not repeat.
Further: nearly all actives have a fitted effect of over 70% in size.
Potency means the concentration at half of the fitted maximal effect; tags describe the fitted curve by direction and shape.
Wherever activity change, negative = inhibition is given: 0% is about no effect.

What follows are compounds tested against Lysine-specific demethylase 5B (Homo sapiens) (UniProt Q9UGL1) (assay: Primary screen for KDM5B Histone Demethylases FDH-coupled qHTS). Conditions: FDH-coupled NADH fluorescence (FDH is formaldehyde dehydrogenase); activity change, negative = inhibition: at 57.7 µM (top of the series) unless noted.
Chain of UniProt Q9UGL1 (Q9UGL1 whole entry, looked up): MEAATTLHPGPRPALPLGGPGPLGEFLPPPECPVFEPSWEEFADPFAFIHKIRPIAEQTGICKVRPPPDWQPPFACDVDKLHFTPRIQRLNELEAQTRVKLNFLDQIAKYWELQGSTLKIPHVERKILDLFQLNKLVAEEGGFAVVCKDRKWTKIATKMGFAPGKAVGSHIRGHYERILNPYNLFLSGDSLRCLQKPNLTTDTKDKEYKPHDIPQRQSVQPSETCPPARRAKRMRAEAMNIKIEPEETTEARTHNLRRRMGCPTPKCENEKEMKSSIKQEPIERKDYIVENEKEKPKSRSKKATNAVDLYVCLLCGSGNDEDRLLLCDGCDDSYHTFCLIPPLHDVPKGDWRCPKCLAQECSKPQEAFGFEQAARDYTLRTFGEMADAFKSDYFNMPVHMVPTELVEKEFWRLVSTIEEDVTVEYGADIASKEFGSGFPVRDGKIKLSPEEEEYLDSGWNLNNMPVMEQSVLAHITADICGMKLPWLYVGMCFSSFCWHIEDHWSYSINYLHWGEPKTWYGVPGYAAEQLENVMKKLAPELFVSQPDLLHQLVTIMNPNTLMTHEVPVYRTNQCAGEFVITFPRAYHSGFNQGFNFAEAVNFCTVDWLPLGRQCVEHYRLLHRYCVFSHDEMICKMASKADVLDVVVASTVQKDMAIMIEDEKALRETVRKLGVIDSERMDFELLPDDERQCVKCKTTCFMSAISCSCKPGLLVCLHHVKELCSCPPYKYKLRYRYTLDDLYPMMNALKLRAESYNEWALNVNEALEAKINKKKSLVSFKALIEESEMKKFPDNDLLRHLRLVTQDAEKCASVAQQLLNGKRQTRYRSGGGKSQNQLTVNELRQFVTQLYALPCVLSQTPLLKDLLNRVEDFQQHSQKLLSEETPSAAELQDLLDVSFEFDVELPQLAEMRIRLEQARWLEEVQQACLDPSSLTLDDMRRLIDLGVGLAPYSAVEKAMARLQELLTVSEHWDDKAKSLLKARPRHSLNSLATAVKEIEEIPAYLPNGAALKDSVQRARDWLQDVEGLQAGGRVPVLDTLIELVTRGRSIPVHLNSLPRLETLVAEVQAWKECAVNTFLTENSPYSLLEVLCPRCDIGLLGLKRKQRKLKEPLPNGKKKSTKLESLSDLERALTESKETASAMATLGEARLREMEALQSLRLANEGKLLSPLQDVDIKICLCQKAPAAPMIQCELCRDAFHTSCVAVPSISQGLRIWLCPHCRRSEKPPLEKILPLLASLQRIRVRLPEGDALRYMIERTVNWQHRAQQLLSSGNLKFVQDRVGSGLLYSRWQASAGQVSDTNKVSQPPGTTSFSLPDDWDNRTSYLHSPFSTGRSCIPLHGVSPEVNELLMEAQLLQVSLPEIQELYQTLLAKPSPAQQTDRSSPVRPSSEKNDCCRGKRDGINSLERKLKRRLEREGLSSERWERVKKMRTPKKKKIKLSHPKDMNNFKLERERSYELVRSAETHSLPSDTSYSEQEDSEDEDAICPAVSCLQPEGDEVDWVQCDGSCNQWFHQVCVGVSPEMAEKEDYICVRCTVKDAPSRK
In short: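 Here, H3K4me3 peptide (12.5 µM in substrate mix) is demethylated by KDM5BΔAP, 200 nM final, after 10 min compound exposure. Formaldehyde product is coupled through FDH (0.25 U/mL in mix) to NADH fluorescence; 30-min ΔRFU feeds dose-response curves.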
For `N#C/C(=C/c1ccccc1OC(F)F)c1nc2ccccc2s1`, the Potency was inconclusive: 25.1 µM [inhibitor, partial curve, poor fit]. For `COc1ccc(C(=O)N2C(C(=O)N3CCCC3)COC23CCN(C(=O)Cc2ccccc2)CC3)cc1` (stereo not drawn), the Potency was inconclusive: 35.5 µM [inhibitor, partial curve, poor fit]. For `CC(C)C(=O)/C(C#N)=C\c1cccc([N+](=O)[O-])c1`, the Potency was inconclusive: 39.8 µM [inhibitor, single point]. For `COc1ccc(NC(=O)c2ccc3c(c2)NC(C)(COc2ccccc2)CO3)cn1` (stereo not drawn), the Potency was active: 31.6 µM. For `Cn1c(=O)[nH]c(=O)c2c1nc(SCC(=O)OCc1ccccc1)n2Cc1ccccc1`, the “activity change, negative = inhibition” value was inactive: 12%. `O=C(NCCS(=O)(=O)N1CCN(c2ccccc2F)CC1)C1CC(=O)N(c2ccc(F)cc2)C1` (stereo not drawn) was tested, and the activity change, negative = inhibition was inconclusive: -32.4% [inhibitor]. With `CCc1nc2c(c(-c3ccc(Cl)cc3)n1)CN(Cc1ccc(C(F)(F)F)cc1)CC2` the Potency was inconclusive: 31.6 µM [inhibitor, partial curve, poor fit]. `COCc1nncn1C1CCN(C(=O)c2cc(F)cc(F)c2)CC1` was tested, and the “activity change, negative = inhibition” value was inactive: -5.76%. For `c1ccc(-c2noc(-c3ccccc3OC3CCNC3)n2)cc1` (stereo not drawn), the Potency was active: 20 µM. In the case of `Cc1ccc(NC(=O)C2CCCN2S(=O)(=O)c2ccc3nc(-c4ccccc4)[nH]c3c2)cc1C` (stereo not drawn), the Potency is reported as inconclusive: 28.2 µM [inhibitor, partial curve, poor fit]. With `Cc1cccc(Cn2c(=O)n(Cc3ccccc3)c(=O)c3sc4ccccc4c32)c1` the Potency was inconclusive: 1.58 µM [inhibitor, partial curve, poor fit]. In the case of `CCCCn1c(CNC(=O)C23CC4CC(CC(C4)C2)C3)nnc1SCC(=O)Nc1ccc(F)cc1`, the Potency is reported as inconclusive: 25.1 µM [inhibitor, partial curve, poor fit]. In the case of `Cc1cccc(NC(=O)Nc2nnc(N3CCCC3)s2)c1`, the “activity change, negative = inhibition” value is reported as inactive: 5.29%. In the case of `Cc1cc(C(=O)N/N=C/c2ccsc2)cs1`, the “activity change, negative = inhibition” value is reported as inactive: 19.9%. In the case of `O=C1Cc2c(-c3ccc(N4CCOCC4)cc3)n[nH]c2CN1CCc1ccncc1`, the Potency is reported as active: 22.4 µM. In the case of `CC(=O)N1C[C@@H](C(=O)NCc2ccc(F)c(Cl)c2)[C@H](c2nc(C)no2)C1`, the “activity change, negative = inhibition” value is reported as inactive: 6.96%. In the case of `Cn1ccc2c(C(=O)Nc3nnc(C4CC4)s3)cccc21`, the Potency is reported as inconclusive: 22.4 µM [inhibitor, partial curve, poor fit]. In the case of `CC(OC(=O)c1cc(=O)[nH]c2ccccc12)C(=O)Nc1cccc2ccccc12` (stereo not drawn), the “activity change, negative = inhibition” value is reported as inactive: -7.82%. With `Cc1nc(-c2cccc(F)c2)sc1CCNC(=O)C(=O)Nc1ccc2c(c1)OCCO2` the “activity change, negative = inhibition” value was inactive: -12.6%. For `COC(=O)C1CCCCN1C(=O)c1ccc2oc(Cc3ccccc3)nc2c1` (stereo not drawn), the Potency was inconclusive: 28.2 µM [inhibitor, partial curve, poor fit]. `COc1ccc(OC)c(C(=O)Oc2cc(Cl)ccc2Cl)c1` was tested, and the “activity change, negative = inhibition” value was inactive: -10.5%. With `COc1ccc(-c2coc3cc(OCC(=O)NCc4ccc(F)cc4)ccc3c2=O)cc1OC` the “activity change, negative = inhibition” value was inactive: -11.7%. In the case of `Cc1ccc(CN(C(=O)c2cc3ccccc3[nH]2)C(C)C)o1`, the “activity change, negative = inhibition” value is reported as inactive: 5.8%. `Cc1c2cnn(-c3ccccc3)c(=O)c2c(C)n1C(C)C(=O)NCc1cccc(Br)c1` (stereo not drawn) was tested, and the Potency was inconclusive: 14.1 µM [inhibitor, partial curve, poor fit]. For `O=C(c1cccc(F)c1)N1CCC2(CC1)NC(=O)N(c1ccccc1Cl)N2`, the Potency was inconclusive: 31.6 µM [inhibitor, partial curve, poor fit]. With `CCOCCCn1c(=N)c(C(=O)NCc2ccccc2)cc2c(=O)n3ccccc3nc21` the Potency was inconclusive: 2.82 µM [inhibitor, partial curve, poor fit]. `COc1cccc(NC(=O)c2ncoc2-c2ccc(C)s2)c1` was tested, and the Potency was inconclusive: 22.4 µM [inhibitor, single point]. With `Cc1c(C)c2ccc(OCC(=O)Nc3ccc4c(c3)OCCO4)cc2oc1=O` the “activity change, negative = inhibition” value was inactive: -0.705%. For `CN1c2cc(C(=O)Nc3ccc(F)cc3)ccc2C(=O)N2CCCCCC21` (stereo not drawn), the Potency was inconclusive: 22.4 µM [inhibitor, partial curve, poor fit]. With `CC(=O)Nc1cccc(Nc2nc(-c3cccs3)nc3ccccc23)c1` the Potency was inconclusive: 25.1 µM [inhibitor, partial curve, poor fit]. In the case of `CCOc1ccccc1NC(=O)CCc1c(C)nc2cc(-c3ccccc3)nn2c1C`, the Potency is reported as inconclusive: 2.82 µM [inhibitor, full curve, poor fit]. `COc1ccc2cnn(CC(=O)Nc3ccc(F)c(Cl)c3)c(=O)c2c1OC` was tested, and the “activity change, negative = inhibition” value was inactive: -13.6%. In the case of `CC(=O)N1CC2(CCCN2C2COC2)Cc2ccccc21` (stereo not drawn), the Potency is reported as inconclusive: 44.7 µM [inhibitor, partial curve]. For `Cc1ccc(NC(=O)CN(c2ccc(C)cc2)S(=O)(=O)c2cccc3nonc23)cc1`, the Potency was inconclusive: 31.6 µM [inhibitor, single point]. In the case of `CCNC(=O)N(C1CC1)C1CCOC2(CCN(C(=O)CCc3cccc(OC)c3)CC2)C1` (stereo not drawn), the “activity change, negative = inhibition” value is reported as inactive: -8.91%. `CCc1cccc(NC(=O)Cn2c(N3CCc4ccccc4C3)nc(C)cc2=O)c1` was tested, and the Potency was inconclusive: 14.1 µM [inhibitor, partial curve]. With `N#Cc1ccccc1CN1CCCCCCNC(=O)[C@@H]2CCC[C@@H]21` the Potency was inconclusive: 6.31 µM [inhibitor, partial curve, poor fit]. For `Cc1nc(N2CCCCC2)ncc1C(=O)N[C@H]1[C@H]2CCO[C@H]2[C@@H]1N(C)C`, the Potency was active: 22.4 µM. `CN1Cc2ccc(NCc3ccccc3)nc2C(C)(C(=O)NCc2ccc3c(c2)OCO3)C1` (stereo not drawn) was tested, and the Potency was inconclusive: 20 µM [inhibitor, single point]. With `CCc1cc(=O)n(CC(=O)NC2CCCC2)c(-c2cccc(Cl)c2)n1` the Potency was inconclusive: 28.2 µM [inhibitor, single point]. In the case of `O=C(c1nc(-c2ccsc2)c2ccccn12)N1CCN(c2ncccn2)CC1`, the Potency is reported as active: 25.1 µM. For `CN(C)c1ccc(CNC(=O)C2CCN(S(=O)(=O)c3ccc4[nH]c(=O)ccc4c3)CC2)cc1`, the Potency was inconclusive: 22.4 µM [inhibitor, partial curve, poor fit]. In the case of `COc1cc(-c2ccno2)ccc1S(=O)(=O)N1CCN(c2ccccc2)CC1`, the Potency is reported as inconclusive: 35.5 µM [inhibitor, single point]. With `COc1ccc2c(=O)c(Oc3cccc(C)c3)c(C(F)(F)F)oc2c1` the “activity change, negative = inhibition” value was inactive: -8.82%. With `O=C(Nc1ccc2oc(-c3ccc4ccccc4c3)nc2c1)c1cc(Cl)ccc1Cl` the Potency was inconclusive: 28.2 µM [inhibitor, partial curve, poor fit]. With `COc1ccc(-n2c(=O)c(C#N)cc3c(=O)n4cccc(C)c4nc32)c(OC)c1` the “activity change, negative = inhibition” value was inactive: -8.47%. `COc1cccc(NC(=O)C2(C)CCCc3cnc(N(C)C)nc32)c1` (stereo not drawn) was tested, and the Potency was active: 39.8 µM. `COc1ccc(-c2cc3c(nc2OC)nc(CC2CC2)n3C)cc1` was tested, and the Potency was active: 35.5 µM. `CNC(=O)c1ccc(CN2CCCC(Nc3ccc(F)cc3)C2)o1` (stereo not drawn) was tested, and the Potency was inconclusive: 31.6 µM [inhibitor, partial curve, poor fit]. For `COc1cc(F)c(S(=O)(=O)N2CCC(C(N)=O)CC2)cc1OC`, the “activity change, negative = inhibition” value was inactive: 15.7%. For `COCCN(CC1CCCN(C2Cc3ccccc3C2)C1)C(=O)c1cc(C)nn1C` (stereo not drawn), the Potency was inconclusive: 7.94 µM [inhibitor, partial curve]. `Cc1ccccc1-n1c(C)nnc1SCC(=O)Nc1c(C#N)c(C)c(C)n1Cc1ccco1` was tested, and the Potency was inconclusive: 17.8 µM [inhibitor, partial curve, poor fit]. For `CN(C)c1ccc(C(=O)NC2CCN(c3cc(-c4cccs4)[nH]n3)C2)cc1` (stereo not drawn), the Potency was inconclusive: 17.8 µM [inhibitor, partial curve, poor fit]. In the case of `COCCN1CCC(N2CCN(C(=O)c3ccc(Cl)s3)CC2)C1=O` (stereo not drawn), the “activity change, negative = inhibition” value is reported as inactive: 12.1%. In the case of `Cc1cccc(Nc2nc3c(S(=O)(=O)c4ccc(Br)cc4)nnn3c3ccsc23)c1C`, the activity change, negative = inhibition is reported as inconclusive: -33.9% [inhibitor]. With `COc1cccc(-c2nc3c(C#N)c[nH]n3c2NC2CCC(C)CC2)c1` (stereo not drawn) the Potency was inconclusive: 14.1 µM [inhibitor, partial curve, poor fit]. For `COCCNC(=O)c1cc(-c2ccc(OC)cc2)nc2onc(C3CCNC3)c12` (stereo not drawn), the Potency was active: 79.4 µM. In the case of `CCCc1nnc(C[C@@H]2C[C@@H](C(C)C)[C@H](CN3CCC(CO)CC3)C=C2C)o1`, the “activity change, negative = inhibition” value is reported as inactive: -25.1% [at 86.2 µM]. With `Cc1ccc2nc([C@H]3CCN(C4CCC4)C3)[nH]c2c1` the Potency was active: 28.2 µM. In the case of `O=C(Nc1ccccc1)c1ccc(-c2cccc3c2CCNC3)o1`, the Potency is reported as inconclusive: 11.2 µM [inhibitor, partial curve, poor fit]. In the case of `COC(=O)c1ccccc1NC(=O)Cn1c(CCC(=O)O)ccc1-c1ccc(C)cc1`, the Potency is reported as inconclusive: 31.6 µM [inhibitor, partial curve, poor fit]. For `O=c1c2c(n(CCOc3ccccc3)n1-c1ccccc1)CN(Cc1nccs1)CC2`, the Potency was inconclusive: 35.5 µM [inhibitor, partial curve, poor fit]. In the case of `CCOC(=O)C1CCN(C(=O)Cn2ncc3c4ccccc4n(Cc4ccccc4)c3c2=O)CC1`, the Potency is reported as inconclusive: 35.5 µM [inhibitor, partial curve, poor fit]. `Cc1ccc(-c2cc(C(=O)O)c3ccc(Br)cc3n2)o1` was tested, and the Potency was inconclusive: 20 µM [inhibitor, partial curve, poor fit]. In the case of `O=C(/C=C/c1ccc(Br)cc1)N(C1CCCCC1)C1CCCCC1`, the “activity change, negative = inhibition” value is reported as inactive: -3.31%. With `O=C1NC2(CCCN(C(=O)c3ccccc3)C2)COc2ccccc21` (stereo not drawn) the “activity change, negative = inhibition” value was inactive: -10.4%. In the case of `CCn1cc(S(=O)(=O)N2CCCC(C(=O)NCc3nn(CC)cc3Cl)C2)c(C)n1` (stereo not drawn), the “activity change, negative = inhibition” value is reported as inactive: 4.14%. In the case of `O=C(c1c(OCC2CC2)cc(=O)n2c1CCOCC2)N1CCN(c2ncccn2)CC1`, the Potency is reported as inconclusive: 31.6 µM [inhibitor, single point].
